Measurements taken from PMC4823075.
No constants are given. Whether binding was seen depends on the method and setting. Binding seen in cells or lysates may run through a third protein. Some entries that bind do so weakly or less than the wild type.

Amino acid sequences for entries named in this document (tags omitted). A change or cut given only in a name is not applied to a line headed by its entry. Chains listed by the source or under a name are the forms on record and can include a tag or linker. Residues count along the entry.
UniProt P46527: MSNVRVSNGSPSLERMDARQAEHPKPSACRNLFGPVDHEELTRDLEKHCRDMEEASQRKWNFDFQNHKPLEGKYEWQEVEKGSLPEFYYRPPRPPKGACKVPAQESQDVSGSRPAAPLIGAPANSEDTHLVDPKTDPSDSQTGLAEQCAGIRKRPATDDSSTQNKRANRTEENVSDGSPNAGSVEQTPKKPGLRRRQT
pCMV-p27aa1-87 (N100): residues 1-87 of P46527
pCMV-p27aa82–198 (N101): residues 82-198 of P46527
c-Myc fused to the C-terminal fragment of YFP (MycYC) (P01106, residues 16-454): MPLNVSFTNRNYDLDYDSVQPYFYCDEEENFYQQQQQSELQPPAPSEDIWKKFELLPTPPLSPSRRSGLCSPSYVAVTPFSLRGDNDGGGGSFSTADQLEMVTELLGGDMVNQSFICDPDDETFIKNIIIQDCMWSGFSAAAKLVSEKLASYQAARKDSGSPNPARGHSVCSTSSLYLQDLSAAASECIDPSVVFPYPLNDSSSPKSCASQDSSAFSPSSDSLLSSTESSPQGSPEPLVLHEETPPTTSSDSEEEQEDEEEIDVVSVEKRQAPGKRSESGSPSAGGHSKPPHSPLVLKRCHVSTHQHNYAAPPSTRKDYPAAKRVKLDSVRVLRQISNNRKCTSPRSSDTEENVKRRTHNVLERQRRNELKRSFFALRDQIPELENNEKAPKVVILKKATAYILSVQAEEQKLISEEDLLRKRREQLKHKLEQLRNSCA
pCGN-HA-Myc95–439 (ΔN1) (P01106, residues 110-454): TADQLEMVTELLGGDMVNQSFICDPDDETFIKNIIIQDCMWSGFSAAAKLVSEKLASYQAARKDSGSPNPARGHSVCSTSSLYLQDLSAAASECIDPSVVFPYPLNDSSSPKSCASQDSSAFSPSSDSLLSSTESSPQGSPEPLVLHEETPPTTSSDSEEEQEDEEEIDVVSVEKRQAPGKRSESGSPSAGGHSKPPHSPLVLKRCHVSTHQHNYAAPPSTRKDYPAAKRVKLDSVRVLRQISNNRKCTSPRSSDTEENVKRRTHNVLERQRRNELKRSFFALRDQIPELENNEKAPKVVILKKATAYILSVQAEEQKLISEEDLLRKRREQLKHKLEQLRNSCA
pCGN-HA-Myc 148–439 (ΔN2) (P01106, residues 163-454): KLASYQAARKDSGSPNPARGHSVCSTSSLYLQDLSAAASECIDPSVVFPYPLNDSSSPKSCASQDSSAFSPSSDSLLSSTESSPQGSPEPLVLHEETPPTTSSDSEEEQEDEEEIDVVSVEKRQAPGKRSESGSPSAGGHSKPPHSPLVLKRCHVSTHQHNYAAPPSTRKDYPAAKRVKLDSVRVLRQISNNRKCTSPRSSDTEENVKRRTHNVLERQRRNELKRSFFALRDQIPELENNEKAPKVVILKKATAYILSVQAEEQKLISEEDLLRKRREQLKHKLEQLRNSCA
pCGN-HA-Myc 221–439 (ΔN3) (P01106, residues 236-454): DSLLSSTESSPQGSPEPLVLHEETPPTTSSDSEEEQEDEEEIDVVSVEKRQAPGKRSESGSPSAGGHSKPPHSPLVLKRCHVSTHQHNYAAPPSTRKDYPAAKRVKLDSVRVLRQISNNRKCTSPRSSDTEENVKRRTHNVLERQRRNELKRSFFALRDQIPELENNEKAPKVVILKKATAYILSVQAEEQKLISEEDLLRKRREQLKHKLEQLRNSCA
pCGN-HA-Myc 294–439 (ΔN4) (P01106, residues 309-454): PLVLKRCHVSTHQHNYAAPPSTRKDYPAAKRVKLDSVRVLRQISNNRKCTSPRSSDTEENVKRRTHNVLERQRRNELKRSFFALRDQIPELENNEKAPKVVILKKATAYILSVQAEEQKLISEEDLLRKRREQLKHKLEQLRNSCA

Legend:
p27^Kip1 (pCMV-p27) [1] = target: p27^Kip1 (pCMV-p27) (UniProt P46527); assay: co-IP; Cos 7 cells cotransfected with HA-tagged wt c-Myc or deletion derivatives and p27; lysates immunoprecipitated with p27 antibodies, western blot with HA antibodies
p27^Kip1 (pCMV-p27) [2] = target: p27^Kip1 (pCMV-p27) (UniProt P46527); assay: co-IP; Cos 7 cells cotransfected with HA-Myc and wt p27 or N100; lysates immunoprecipitated with p27 BD antibodies (recognise the N-terminal part of p27), western blot with HA antibodies
pCMV-p27aa1-87 (N100) = pCMV-p27aa1-87 (N100) (UniProt P46527); assay: as above
pCMV-p27aa82–198 (N101) = pCMV-p27aa82–198 (N101) (UniProt P46527); assay: co-IP; Cos 7 cells cotransfected with c-Myc and wt p27 or N101; lysates immunoprecipitated with Myc or p27 C-19 antibodies (recognise the C-terminal part of p27), western blot with Myc antibodies
p27^Kip1 (pCMV-p27) [3] = target: p27^Kip1 (pCMV-p27) (UniProt P46527); assay: as above
p27^Kip1 (pCMV-p27) [4] = target: p27^Kip1 (pCMV-p27) (UniProt P46527); assay: co-IP; HCT116 Fbxw7-/- cells transfected with Myc, p27 or Myc + p27; lysates immunoprecipitated with p27 C-19 or Gal4 control antibodies, immunoblot with pan-Myc antibodies
p27-YN = p27-YN (UniProt P46527); assay: split reporter; BiFC in Cos7 cells cotransfected with c-Myc-YC and p27-YN, or bFos-YC and p27-YN as control; signal analysed under a UV microscope

**Q.** For “pCGN-HA-Myc95–439 (ΔN1) (from UniProt P01106-1 95-439) (domain or fragment)”, which binding (p27^Kip1 (pCMV-p27) [1]) is on record?
**A.** binds

**Q.** How did the binding (p27^Kip1 (pCMV-p27) [1]) turn out when “pCGN-HA-Myc 294–439 (ΔN4) (from UniProt P01106-1 294-439) (domain or fragment)” was run?
**A.** binds

**Q.** How did the binding (p27^Kip1 (pCMV-p27) [1]) turn out when “pCGN-HA-Myc 148–439 (ΔN2) (from UniProt P01106-1 148-439) (domain or fragment)” was run?
**A.** binds

**Q.** For “HA-tagged c-Myc (pCGN-HA-Myc) (from UniProt P01106-1 1-439)”, which binding (p27^Kip1 (pCMV-p27) [2]) is on record?
**A.** binds

**Q.** And the binding (pCMV-p27aa1-87 (N100))?
**A.** no binding

**Q.** What about the binding (p27^Kip1 (pCMV-p27) [1]) of the same substance?
**A.** binds

**Q.** With “c-Myc (CMV-Myc expression vector) (from UniProt P01106-1 1-439)” as the substance, how does the binding (pCMV-p27aa82–198 (N101)) read?
**A.** binds

**Q.** And the binding (p27^Kip1 (pCMV-p27) [3])?
**A.** binds

**Q.** And the binding (p27^Kip1 (pCMV-p27) [4])?
**A.** binds

**Q.** How did the binding (p27^Kip1 (pCMV-p27) [1]) turn out when “pCGN-HA-Myc 221–439 (ΔN3) (from UniProt P01106-1 221-439) (domain or fragment)” was run?
**A.** binds

**Q.** For “c-Myc fused to the C-terminal fragment of YFP (MycYC) (from UniProt P01106-1 1-439)”, which binding (p27-YN) is on record?
**A.** binds
